According to PubChem BioAssay AID588855 (National Center for Advancing Translational Sciences (NCATS), 2011):
Hit rate of the full screen: of about 410,000 compounds, about 5,000 (1.2%) were called active. This list was built around the results that the source calls inconclusive (neither active nor inactive); the mix of calls is not that of the screen. Calls follow the shape of the dose curve; as a rule, active = well fitted inhibition curve with a large enough effect; inconclusive = small, poorly fitted or top-dose-only effect; inactive = no such curve, though single readings can be large or run the other way. Potencies of inconclusive entries are doubtful fits and often do not repeat.

Test: qHTS for Inhibitors of TGF-b; also: nearly all actives have a fitted effect of over 65% in size
Conditions: HepG2 CAGA-GFP TGF-b/SMAD3 reporter, GFP fluorescence, 18 h, TGF-beta stimulated, 500 pg/mL final; series mostly up to 46.1 µM
Outline: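 GFP signal (ex488/em500-530) from TGF-beta-stimulated HEPG2 CAGA-GFP cells, 500 pg/mL final, 18 h at 37 degrees C in DMEM plus 1% FBS, normalized to unstimulated and DMSO-stimulated controls.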
Potency is read from the fitted curve at half-maximal effect; tags tell the direction and shape of the fitted curve.

SMILES	Potency
COc1ccc(-n2c(Cc3cccn3C)nnc2SCC(=O)Nc2ccccc2C)cc1	inactive
Clc1ccc(CN=C(Nc2ccccc2)NC2CCCCC2)cc1	inconclusive: 35.5 µM [inhibitor, partial curve, poor fit]
COc1ccc(/C=C2\Sc3ccc(C(=O)NC4CC4)cc3N(C)C2=O)cc1OC	inactive
CCOC(=O)C1=C(CC)Nc2ccccc2N=C1NC(=O)c1cc(S(=O)(=O)N2CCOCC2)ccc1C	inactive
c1ccc2nc3[nH]cnc3nc2c1	inconclusive: 35.5 µM [inhibitor, single point]
Nc1c2c(nc3sc4c(c13)CCCC4)-c1ccccc1CC2	inconclusive: 15.8 µM [inhibitor, single point]
CCN(c1ccccc1)c1nnc(NC(=O)Nc2cccc(Cl)c2C)s1	inconclusive: 11.2 µM [inhibitor, partial curve, poor fit]
C[C@@H]1CN([C@H](C)CO)C(=O)c2cc(NS(=O)(=O)c3cn(C)cn3)ccc2O[C@H]1CN(C)C(=O)Nc1ccccc1	inactive
C/C(=N/NC(=O)c1ccc(-c2ccccc2)cc1)c1cc(O)cc(O)c1	inactive
O=C(/C=C/c1ccccc1)Nc1ccc(C(=O)N2CCCCC2)cc1	inactive
Cc1ccc(NC(=O)c2cc(-c3ccc(C)o3)nc3ccccc23)cc1	inconclusive: 35.5 µM [inhibitor, single point]
O=C(Nc1ccc(N2CCCC2)cc1)c1ccc(Br)o1	inactive
Cc1cccc(-c2c3c(=O)n(C)c(=O)n(C)c3cn2-c2cc(N)c(Cl)cc2Cl)c1	inconclusive: 35.5 µM [inhibitor, single point]
O=c1[nH]c2ccc(Cl)cc2c(-c2ccccc2)c1CN1CCOCC1	inconclusive: 31.6 µM [inhibitor, single point]
Cc1ccc(C)c(Nc2c([N+](=O)[O-])c(=O)oc3ccccc23)c1	inconclusive: 35.5 µM [inhibitor, single point]
COc1ccc(OC)c(NC(=O)Nc2nc(C(N)CCc3ccccc3)cs2)c1 (stereo not given)	inconclusive: 12.6 µM [inhibitor, partial curve, poor fit]
COc1ccc(C2c3c(c(C)c(C)oc3=O)Oc3c(C)c(C)oc(=O)c32)cc1	inconclusive: 4.47 µM [inhibitor, full curve]
COC(=O)c1ccccc1NC(=O)CCC(=O)N1CCOc2ccccc21	inactive
COc1ccccc1Cn1ccn(Cc2c(F)cccc2Cl)c(=O)c1=O	inconclusive: 35.5 µM [inhibitor, single point]
CCOC(=O)c1ccc(NC(=O)COc2ccc(CNC3CCCCC3)cc2OC)cc1	inconclusive: 35.5 µM [inhibitor, single point]
